This passage reports viability index results from the supplement of paper PMC4723716.

SMILES strings stand for the structures. Over roughly 3,600 compounds, “viability index relative to DMSO control” has its median near 0.81; the lowest 2% begin near 0.13. This is one part of the list.
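Note: 384-well serum-free SaLSSA: MitoTracker Red CMXRos staining with saponin lysis, high-content imaging, treated-well particle count divided by plate-mean count of DMSO wells.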

The test concerns Plasmodium falciparum NF54 stage V gametocytes. Put plainly: viability index relative to DMSO control (fraction); higher = less gametocyte killing. The following applies: 1.25 µM, incubation time: 72 h.
`CN(C)c1nc(Cl)nc(N(C#N)CCOc2ccccc2)n1`: the viability index was found to be 0.71.

Regarding `S=C(NCc1ccco1)NC1CC2CCC(C1)N2Cc1ccccc1` (stereo not drawn), the viability index stood at 1.32.

`O=C(NC1CC1)c1ccc(N2CCC(Cc3ccccc3)CC2)c([N+](=O)[O-])c1` came in with a viability index of 0.664.

Take `Cc1onc(-c2ccccc2Cl)c1C(=O)Nc1cc(Cl)ccc1Cl`: the viability index came out at 0.71.

`CCCCCSc1scc(-c2ccc(O)c(O)c2)[n+]1C` gave a viability index of 0.973.

`COc1ccccc1C(=O)NN=C(C)c1cccnc1` gave a viability index of 0.947.

For `CN(C)CCCNC1=NC=NC2C=C(Cl)C=CC12` (stereo not drawn), the viability index was determined as 0.945.

`COc1cccc(NC(=O)C2C3C=CC4(O3)C2C(=O)N(Cc2ccc3c(c2)OCO3)C4C(=O)NC2CCCCC2C)c1` (stereo not drawn) came in with a viability index of 0.896.

`CCOC(=O)C1=C(C)NC(=Cc2cc(C)n(-c3ccc(C)cc3C)c2C)C1=O` yielded a viability index of 0.494.

With `CCOC(=O)C1=C(C)NC2=C(C(=O)CC(c3ccc(OC)c(OC)c3)C2)C1c1ccc(F)cc1` (stereo not drawn), the viability index came to 0.629.

Consider `CC(=O)Nc1cc(C(F)(F)F)cc(C(F)(F)F)c1`, for which the viability index turned out to be 0.697.

As to `COc1ccc(CN(Cc2ccc(C(C)C)cc2)S(=O)(=O)c2ccc(S(=O)(=O)N3CCN(c4ccccc4F)CC3)cc2)cc1`, the viability index is 1.01.

Regarding `COc1ccc(C2=C(Nc3ccc(C)c(C)c3)c3ccccc3C2=O)cc1`, the viability index turned out to be 0.647.

The compound `Clc1ccccc1C(c1ccccc1)(c1ccccc1)n1ccnc1` registered a viability index of 0.979.

`CN(C)c1ccc(C2Nc3ccccc3NC3=C2C(=O)CC(C)(C)C3)cc1` (stereo not drawn) registered a viability index of 1.09.

In the case of `O=[N+]([O-])c1ccc(N2CCN(c3nc(NCCc4c[nH]c5ccccc45)c4ccccc4n3)CC2)cc1`, the viability index is 0.763.

`Cc1cc(C=C2SC(=Nc3ccccc3)N(C3CCCCC3)C2=O)c(C)n1-c1ccc(F)cc1`: the viability index came to 0.606.

`CCCOC(=O)C1=C(C)NC2=C(C(=O)CC(c3ccc(OC)c(OC)c3)C2)C1c1ccc(Br)cc1` (stereo not drawn): the viability index was found to be 0.421.

`O=C(CCl)Nc1ccc(OC(F)F)cc1` yielded a viability index of 0.533.

The compound `CCCCOc1cccc(NC(=O)CSC2=C(C#N)C(c3ccccc3)C(C(=O)Nc3ccccc3)=C(C)N2)c1` (stereo not drawn) returned a viability index of 0.5.

`CCOc1cc(C=NN=C(N)N)ccc1OCc1ccccc1` returned a viability index of 0.404.

In turn, `COc1ccc(CCNc2ncnc3c2[nH]c2ccccc23)cc1` gave a viability index of 0.547.

As to `CC1Cc2ccc(F)cc2CN1C(=O)c1ccc(COc2ccccc2Br)o1` (stereo not drawn), the viability index came out at 0.842.

`O=C(NC(C(=O)c1ccccc1)N1CCCCC1)c1ccco1` (stereo not drawn) showed a viability index of 0.946.

`CCN(CC)CCCC(C)Nc1nc(C=Cc2ccccc2OC)nc2cc(Cl)ccc12` (stereo not drawn) came in with a viability index of 0.712.

`CCN1C(=CC=CC2=[N+](C)c3ccc(C)cc3C2(C)C)C=Cc2ccccc21` came in with a viability index of 0.359.

Compound `CCOC(=O)C1=C(C)NC2=C(C(=O)C(C(=O)OC)C(C)C2)C1c1cc(Br)c(OCC)c(OC)c1` (stereo not drawn) displayed a viability index of 0.534.

The compound `COc1ccc2sc(Nc3nc(-c4ccccn4)cs3)nc2c1` registered a viability index of 0.876.

On to `Cn1cnnc1SCC(=O)Nc1ccccc1C(F)(F)F`, for which the viability index was determined as 0.743.

In turn, `COC(=O)C1=C(C)NC2=C(C(=O)CC(c3ccccc3Cl)C2)C1c1ccc([N+](=O)[O-])cc1` (stereo not drawn) displayed a viability index of 0.302.

Turning to `Cc1c2ccccc2cc(Cc2ccccc2)[n+]1C`, the viability index came out at 0.76.

With `CC1(C)C(=O)C2(CCCCC2)C(=O)OC1C=Cc1ccccc1` (stereo not drawn), the viability index amounted to 0.596.

Compound `COc1cccc(-c2ccc(O)c(CNC(C)c3cccc4ccccc34)c2)n1` (stereo not drawn) came in with a viability index of 0.519.

Compound `CCN(C(C)=O)C1=C(N2CCOCC2)C(=O)c2ccccc2C1=O` displayed a viability index of 0.538.

The compound `COc1cc(C=NNC(=O)c2ccco2)ccc1OCc1ccc([N+](=O)[O-])cc1` came in with a viability index of 0.992.

`COC(=O)c1cnn(-c2ccccc2)c1C=NOC(=O)c1ccccc1` showed a viability index of 0.975.

In turn, `CCN1C(=Cc2cccc[n+]2C)C=Cc2ccccc21` showed a viability index of 1.01.

`Cc1cn2c3ccccc3n(CCN3CCOCC3)c2n1` displayed a viability index of 0.76.

`N#Cc1ccc(-c2cnc(N)c(-c3ccc(C(N)=O)cc3)n2)cc1`: the viability index worked out at 0.232.

Compound `CCOC(=O)C1=C(C)N=c2sc(=Cc3cc(Cl)ccc3O)c(=O)n2C1c1ccc2c(c1)OCO2` (stereo not drawn) had a viability index of 0.764.

In turn, `N#CC(=Cc1ccccc1OCc1ccc(Cl)cc1Cl)c1nc2ccccc2[nH]1` displayed a viability index of 0.521.

In turn, `Cc1c(Cl)cccc1NCC(=O)NN=C1CCCC1` showed a viability index of 0.779.

With `N#Cc1cc2[nH]c3ccccc3c2n(-c2ccc([N+](=O)[O-])cc2)c1=N`, the viability index worked out at 0.838.

In the case of `COc1ccc(-c2c[n+](CC(=O)c3ccccc3)c3n2CCC3)cc1`, the viability index was 0.951.

Compound `CCOC(=O)c1nnn(-c2nonc2N)c1-c1ccc(Br)cc1` yielded a viability index of 0.676.

Consider `CCOC(=O)N1CCC(N2C(=O)c3ccccc3C2Nc2ccc(OCC)cc2)CC1` (stereo not drawn), for which the viability index stood at 0.988.

Regarding `COc1ccc(NC(=O)CN2CCN(S(=O)(=O)c3cccc([N+](=O)[O-])c3)CC2)c(OC)c1`, the viability index is 0.909.

In the case of `COC(=O)C1=C(C)NC(=Cc2cc(C)n(-c3ccc(Cl)c(Cl)c3)c2C)C1=O`, the viability index is 0.812.

`CCN(C(=O)CSc1nc(-c2ccc(C(C)C)cc2)no1)c1cccc(C)c1` returned a viability index of 0.699.

`COC(=O)c1c(OCc2ccc(F)cc2)cc(=O)n2c1CCN(Cc1ccccc1)CC2` came in with a viability index of 1.12.

With `COc1ccc2oc(=O)c(C(=O)N(C)c3ccc(S(N)(=O)=O)cc3)cc2c1`, the viability index worked out at 0.906.

Regarding `COc1ccc(C=NN=C2NC(=O)C(CC(=O)Nc3ccccc3)S2)cc1OC` (stereo not drawn), the viability index turned out to be 0.898.

`Oc1ccc(C2Nc3ccc4ccccc4c3C3C=CCC32)cc1` (stereo not drawn) came in with a viability index of 0.808.

In the case of `C=CCOC(=O)C1=C(C)N2CCSC2=C(C#N)C1c1ccco1` (stereo not drawn), the viability index came out at 1.13.

In turn, `CC(C)(C)NCC(O)Cn1c2ccc(Br)cc2c2cc(Br)ccc21` (stereo not drawn) returned a viability index of 0.647.

For the compound `COc1ccc(C2Nc3ccc([N+](=O)[O-])cc3C3C=CCC32)cc1[N+](=O)[O-]` (stereo not drawn), the viability index is 0.649.

For the compound `O=C(NN=Cc1cccc(Cl)c1)C1COc2ccccc2O1` (stereo not drawn), the viability index turned out to be 0.928.

With `O=C(NCc1ccco1)C1CCN(S(=O)(=O)c2ccc(Cl)cc2)CC1`, the viability index was 0.796.
